# Data reported in the supplement of paper PMC4604168 (melanoma cell lines).
# This is one part of the list. Repeats are few or missing, and single values can be far off.
# Experiments:
# Assay in all cases: cell count relative to DMSO control; melanoma cells; higher = more viable cells
# Conditions in all cases: library dose: standard library concentration; 72 h
# G361 = system: G361
# IPC-298 = system: IPC-298
# IST-MEL1 = system: IST-MEL1
# LB2518-MEL = system: LB2518-MEL
# LOXIMVI = system: LOXIMVI
# MEL-HO = system: MEL-HO
# MZ2-MEL = system: MZ2-MEL
# MeWo = system: MeWo
# RPMI7951 = system: RPMI7951
# RVH-421 = system: RVH-421
# SkMel28 = system: SkMel28
# SkMel2 = system: SkMel2
# SkMel30 = system: SkMel30
# SkMel5 = system: SkMel5
# UACC257 = system: UACC257
# UACC62 = system: UACC62
# WM115 = system: WM115
# WM1716 = system: WM1716
# WM1745 = system: WM1745
# WM3526 = system: WM3526
# 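Note: cells treated in 1,536-well plates, then fixed and DAPI-stained, with nuclei counted from automated high-throughput microscope images.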
Compound,cell count (G361) [%],cell count (IPC-298) [%],cell count (IST-MEL1) [%],cell count (LB2518-MEL) [%],cell count (LOXIMVI) [%],cell count (MEL-HO) [%],cell count (MZ2-MEL) [%],cell count (MeWo) [%],cell count (RPMI7951) [%],cell count (RVH-421) [%],cell count (SkMel28) [%],cell count (SkMel2) [%],cell count (SkMel30) [%],cell count (SkMel5) [%],cell count (UACC257) [%],cell count (UACC62) [%],cell count (WM115) [%],cell count (WM1716) [%],cell count (WM1745) [%],cell count (WM3526) [%]
"CC(C)(C)c1cnc(CSc2cnc(NC(=O)C3CCNCC3)s2)o1 + COc1ccc2c(c1)CCC1C2CCC2(C)C(NCCCCCCN3C(=O)C=CC3=O)CCC12 [U73122] (first compound 0.05 µM, partner dose 2 µM)",97.8,109,107,121,61,99.5,108,67.5,19.5,66.1,89.8,111,85.1,104,108,94.6,71.7,52.7,77.6,105
"CC(C)(C)c1cnc(CSc2cnc(NC(=O)C3CCNCC3)s2)o1 + O=C(O)C(=O)Nc1sc2c(c1C(=O)O)CCNC2 [TCS401] (first compound 0.05 µM, partner dose 8.33333 µM)",130,103,112,83.2,72.5,93.1,89.7,94.5,40.9,113,72.8,89.7,122,59.9,92.9,95.4,91,85.8,76.1,96.7
"CCc1ccc(CCOc2ccc(CC3SC(=O)NC3=O)cc2)nc1 (stereo not given) [pioglitazone] + N#Cc1c(O)c2c(-c3ccc(-c4ccccc4O)cc3)csc2[nH]c1=O [A769662] (first compound 10 µM, partner dose 10 µM)",94.7,98.7,86.9,102,109,93.6,104,102,131,118,91.3,89.3,109,83.8,89.5,104,85.4,134,92.1,89.4
"NC(=O)c1ccc(N(C(N)=O)c2c(F)cccc2F)nc1-c1ccc(F)cc1F + Cn1c(Nc2ccc(C(F)(F)F)cc2)nc2cc(Oc3ccnc(-c4ncc(C(F)(F)F)[nH]4)c3)ccc21 [CHIR265] (first compound 2 µM, partner dose 0.4 µM)",27.9,37.1,95.7,39.3,54.3,76.6,77.9,78.2,63.6,75.7,40.2,59.6,67.8,47.9,92.4,44.5,51.2,75.9,60.4,66
"Cc1ccc(NC(=O)c2cccc(N(C)C)c2)cc1NC(=O)c1ccc(O)cc1 + NC(=O)Nc1cc(-c2cccc(F)c2)sc1C(=O)N[C@H]1CCCNC1 [AZD7762] (first compound 10 µM, partner dose 0.1 µM)",93,86.5,86.7,54.5,95.7,74.2,99.5,79.6,47.2,112,24.6,79.1,101,109,104,65.7,65.9,66.7,44.2,58.1
"CN(NC(=O)CC(=O)NN(C)C(=S)c1ccccc1)C(=S)c1ccccc1 + Oc1cc(-c2nc(-c3ccccc3)[nH]c2-c2ccncc2)ccc1Cl [L779450] (first compound 0.03 µM, partner dose 1 µM)",25,76.9,47.3,22.3,100,77.7,113,18.9,91.5,41.4,2.87,13.7,90.5,66,92.2,18.9,23.3,62.6,24.3,58.1
"CCCCCCCCc1ccc(CCC(N)(CO)CO)cc1 [fingolimod] + O=C(O)c1ccc2c(c1)nc(Nc1cccc(Cl)c1)c1ccncc12 [CX4945] (first compound 10 µM, partner dose 2 µM)",2.46,41.6,3.32,0.19,17.1,9.37,1.96,36.5,2.39,18.7,1.49,0.392,8.1,46.1,72.1,13.1,17.5,35.5,13,23
"Cc1ccc(NC(=O)c2cccc(N(C)C)c2)cc1NC(=O)c1ccc(O)cc1 + C[C@@H]1CCN(C(=O)CC#N)C[C@@H]1N(C)c1ncnc2[nH]ccc12 [CP690550] (first compound 10 µM, partner dose 5 µM)",90.9,101,82.5,109,123,99.7,109,87.6,67.6,99.5,66.4,85.9,118,86.1,94.6,121,96.8,102,71.9,85.1
"CCCCCCCCc1ccc(CCC(N)(CO)CO)cc1 [fingolimod] + O=C(O)[C@@H]1[O][Sb](=[O])([O][Sb]2(=[O])[O][C@H]([C@H](O)CO)[C@H](O)[C@H](C(=O)O)[O]2)[O][C@H]([C@H](O)CO)[C@@H]1O [stibogluconate] (first compound 10 µM, partner dose 10 µM)",66.9,75.1,41.9,61.2,66.4,84.3,76.7,40.6,72.8,30.3,62.8,60.8,17.2,66.3,61.4,22,32.4,19,66.6,15.6
"NC(=O)c1ccc(N(C(N)=O)c2c(F)cccc2F)nc1-c1ccc(F)cc1F + C#Cc1cccc(Nc2ncnc3cc(OCCOC)c(OCCOC)cc23)c1 [erlotinib] (first compound 2 µM, partner dose 4 µM)",70.4,61.3,99.7,62.7,98.1,65.9,63.9,52.6,66.6,90.4,74.2,90.3,64.2,57,103,74.3,67.1,99.8,45,66.4
"CC(C)(C)c1cnc(CSc2cnc(NC(=O)C3CCNCC3)s2)o1 + Cc1cc([N+](=O)[O-])ccc1NS(=O)(=O)c1cc(Cl)ccc1Cl [FH535] (first compound 0.05 µM, partner dose 5 µM)",51.8,55.4,47,59.6,68.9,54.9,58.4,91,42,46.4,55.6,69.5,81.7,61.7,57.9,67.5,88.6,69.9,75.3,80.7
"NC(=O)c1ccc(N(C(N)=O)c2c(F)cccc2F)nc1-c1ccc(F)cc1F + OCCn1cc(-c2cnc3nnn(Cc4ccc5ncccc5c4)c3n2)cn1 [PF04217903] (first compound 2 µM, partner dose 5 µM)",81.3,112,91.9,108,141,95.1,115,104,109,98.5,83.4,89.7,111,97.1,111,110,78.9,107,92.5,92.1
"CCCCCCCCc1ccc(CCC(N)(CO)CO)cc1 [fingolimod] + Nc1ccn([C@@H]2O[C@H](CO)[C@@H](O)C2(F)F)c(=O)n1 [gemcitabine] (first compound 10 µM, partner dose 0.002 µM)",13.3,47.6,6.09,30.7,21.8,29.7,61.7,29.6,1.04,28.3,13.7,56,26.3,66.3,77.8,31.5,34.1,43.1,49.4,43.8
"NC(=O)c1ccc(N(C(N)=O)c2c(F)cccc2F)nc1-c1ccc(F)cc1F + Cn1nnc2c(C(N)=O)ncn2c1=O [temozolomide] (first compound 2 µM, partner dose 10 µM)",92,89.9,74,84,104,92,86.4,111,85.3,86.5,35.1,90.2,57.3,74.9,99,56.6,78.5,54.5,86.3,93.4
"COc1cc2c(Oc3ccc4[nH]c(C)cc4c3F)ncnc2cc1OCCCN1CCCC1 [cediranib] + COc1ccc(COc2ccc(Cc3cnc(N)nc3N)cc2OC)cc1 [GW2580] (first compound 2 µM, partner dose 5 µM)",92.5,91.3,134,112,247,98.2,94.6,76.2,118,104,94.3,91.5,76.7,73.8,83.4,89.7,87.2,101,105,73
"CCCCCCCCc1ccc(CCC(N)(CO)CO)cc1 [fingolimod] + CC(=O)c1c(C)c2cnc(Nc3ccc(N4CCNCC4)cn3)nc2n(C2CCCC2)c1=O [palbociclib] (first compound 10 µM, partner dose 0.2 µM)",0.511,30.5,12.1,0.201,9.28,11.3,0.288,25.1,2.81,3.11,1.26,0.274,18.5,41.7,75.7,13.6,16.6,37.4,3.25,35.9
"CCCCCCCCc1ccc(CCC(N)(CO)CO)cc1 [fingolimod] + Cc1cc(Nc2cc(N3CCN(C)CC3)nc(/C=C/c3ccccc3)n2)n[nH]1 [ENMD2076] (first compound 10 µM, partner dose 0.2 µM)",21,55.9,9.3,0.542,54,10.8,9.61,62.6,2.88,21.7,1.56,0.115,13.5,68.5,76.4,22.9,29.3,37.5,24,45.1
"CCCCCCCCc1ccc(CCC(N)(CO)CO)cc1 [fingolimod] + COc1cc2c(Oc3ccc4[nH]c(C)cc4c3F)ncnc2cc1OCCCN1CCCC1 [cediranib] (first compound 10 µM, partner dose 2 µM)",0.911,33,27.6,0.339,7.38,0.895,1.3,14.1,1.26,7.37,1.19,0.446,11.6,38.3,64.3,11.4,10.5,16.7,3.9,11.3
